Test results from publication PMC3709894.
Results are given in words; binding and its absence hold for the method and conditions named. Binding seen in cells or lysates may run through a third protein. Some binding calls cover weakened binding; strength is not graded here. Where a sequence is shown, tags or fusion partners need not be part of it.

Assays:
[1] = molecular target: T1, Flag-Rad21 WT (full length) in pFlag CMV2 (human) (UniProt O60216); assay: co-IP; 293 T cells transfected with pFlag CMV2 Rad21 constructs; IP of Flag-Rad21 (Flag mAb agarose beads) from whole cell lysate, blots of endogenous cohesin subunits and associated proteins
T1 sequence: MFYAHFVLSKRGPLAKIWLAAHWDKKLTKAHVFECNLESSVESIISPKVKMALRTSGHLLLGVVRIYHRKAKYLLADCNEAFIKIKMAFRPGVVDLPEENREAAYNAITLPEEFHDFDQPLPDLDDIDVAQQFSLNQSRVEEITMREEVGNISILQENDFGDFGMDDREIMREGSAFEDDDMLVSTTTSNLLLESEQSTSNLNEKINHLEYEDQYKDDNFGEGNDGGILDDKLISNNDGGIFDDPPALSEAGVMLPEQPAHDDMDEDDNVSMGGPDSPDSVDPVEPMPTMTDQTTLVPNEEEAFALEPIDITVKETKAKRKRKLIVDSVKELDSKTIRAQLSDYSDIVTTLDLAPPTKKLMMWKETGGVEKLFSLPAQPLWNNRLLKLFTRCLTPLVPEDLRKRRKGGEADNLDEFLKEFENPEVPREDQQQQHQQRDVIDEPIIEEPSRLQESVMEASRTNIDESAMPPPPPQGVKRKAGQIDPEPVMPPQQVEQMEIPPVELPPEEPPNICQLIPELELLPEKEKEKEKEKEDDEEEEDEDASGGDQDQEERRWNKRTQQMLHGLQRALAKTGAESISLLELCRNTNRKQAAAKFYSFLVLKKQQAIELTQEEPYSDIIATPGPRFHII

[2] = molecular target: T2, Flag-Rad21 quadruple mutant (QM) R69A K70A K72A Y73A, full length (human) (UniProt O60216); assay: as above
T2 sequence: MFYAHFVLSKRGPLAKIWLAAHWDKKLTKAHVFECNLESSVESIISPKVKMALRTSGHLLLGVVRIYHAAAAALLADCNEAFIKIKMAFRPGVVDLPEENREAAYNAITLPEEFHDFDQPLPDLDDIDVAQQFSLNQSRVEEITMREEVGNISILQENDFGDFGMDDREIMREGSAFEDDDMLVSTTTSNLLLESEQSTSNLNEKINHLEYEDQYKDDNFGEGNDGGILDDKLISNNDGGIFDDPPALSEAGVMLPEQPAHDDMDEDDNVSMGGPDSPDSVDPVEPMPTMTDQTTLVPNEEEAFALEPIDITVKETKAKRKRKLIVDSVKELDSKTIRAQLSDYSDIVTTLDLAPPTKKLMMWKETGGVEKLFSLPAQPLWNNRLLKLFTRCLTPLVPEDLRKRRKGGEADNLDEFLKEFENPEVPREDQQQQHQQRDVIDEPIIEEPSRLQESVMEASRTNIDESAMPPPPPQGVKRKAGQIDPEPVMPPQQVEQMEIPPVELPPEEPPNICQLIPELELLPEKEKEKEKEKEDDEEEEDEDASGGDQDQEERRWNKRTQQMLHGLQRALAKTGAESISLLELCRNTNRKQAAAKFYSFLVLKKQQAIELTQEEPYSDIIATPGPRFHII

[3] = molecular target: T3, Flag-Rad21 single mutant (SM) L385A (human) (UniProt O60216); assay: as above
T3 sequence: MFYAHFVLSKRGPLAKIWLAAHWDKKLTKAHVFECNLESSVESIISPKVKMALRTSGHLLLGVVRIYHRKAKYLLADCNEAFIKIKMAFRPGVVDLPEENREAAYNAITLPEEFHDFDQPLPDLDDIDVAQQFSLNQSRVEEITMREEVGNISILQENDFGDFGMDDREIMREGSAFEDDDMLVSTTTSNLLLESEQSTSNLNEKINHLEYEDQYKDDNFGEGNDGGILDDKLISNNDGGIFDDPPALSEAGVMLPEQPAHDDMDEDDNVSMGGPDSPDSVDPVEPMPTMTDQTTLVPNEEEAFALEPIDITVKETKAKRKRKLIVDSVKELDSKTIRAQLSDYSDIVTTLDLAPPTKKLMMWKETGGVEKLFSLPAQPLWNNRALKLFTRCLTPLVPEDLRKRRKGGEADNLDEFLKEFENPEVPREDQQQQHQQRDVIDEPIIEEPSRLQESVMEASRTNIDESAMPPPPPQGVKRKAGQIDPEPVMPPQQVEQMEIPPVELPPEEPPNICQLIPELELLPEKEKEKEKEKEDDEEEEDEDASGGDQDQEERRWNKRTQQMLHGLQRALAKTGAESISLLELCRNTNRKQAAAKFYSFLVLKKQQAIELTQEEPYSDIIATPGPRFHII

[4] = molecular target: T4, Myc-Rad21 Del (del(383–392 aa)) in pCS2MT (human) (UniProt O60216); assay: co-IP; 293 T cells transfected with Myc-Rad21 WT or mutants; IP from whole cell lysate, blots of endogenous cohesin subunits including endogenous Rad21
T4 sequence: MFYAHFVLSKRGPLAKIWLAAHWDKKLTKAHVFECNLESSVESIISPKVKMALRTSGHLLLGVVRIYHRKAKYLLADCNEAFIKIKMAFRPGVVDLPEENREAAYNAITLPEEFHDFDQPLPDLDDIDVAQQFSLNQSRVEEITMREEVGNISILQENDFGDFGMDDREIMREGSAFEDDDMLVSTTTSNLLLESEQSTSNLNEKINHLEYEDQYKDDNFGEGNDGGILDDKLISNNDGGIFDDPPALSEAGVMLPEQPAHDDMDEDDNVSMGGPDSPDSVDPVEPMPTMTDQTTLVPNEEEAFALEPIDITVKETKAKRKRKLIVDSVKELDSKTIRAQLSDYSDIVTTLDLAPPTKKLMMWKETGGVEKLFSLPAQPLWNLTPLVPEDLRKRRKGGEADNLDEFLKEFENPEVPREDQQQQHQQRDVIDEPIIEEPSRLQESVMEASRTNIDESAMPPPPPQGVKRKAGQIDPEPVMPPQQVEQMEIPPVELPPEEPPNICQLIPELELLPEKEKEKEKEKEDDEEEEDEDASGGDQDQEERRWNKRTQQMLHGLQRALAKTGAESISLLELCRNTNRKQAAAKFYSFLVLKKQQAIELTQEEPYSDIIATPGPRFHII

Measured: binding

B1: endogenous Smc1 (protein, UniProt Q14683 1-1233)
chain: MGFLKLIEIENFKSYKGRQIIGPFQRFTAIIGPNGSGKSNLMDAISFVLGEKTSNLRVKTLRDLIHGAPVGKPAANRAFVSMVYSEEGAEDRTFARVIVGGSSEYKINNKVVQLHEYSEELEKLGILIKARNFLVFQGAVESIAMKNPKERTALFEEISRSGELAQEYDKRKKEMVKAEEDTQFNYHRKKNIAAERKEAKQEKEEADRYQRLKDEVVRAQVQLQLFKLYHNEVEIEKLNKELASKNKEIEKDKKRMDKVEDELKEKKKELGKMMREQQQIEKEIKEKDSELNQKRPQYIKAKENTSHKIKKLEAAKKSLQNAQKHYKKRKGDMDELEKEMLSVEKARQEFEERMEEESQSQGRDLTLEENQVKKYHRLKEEASKRAATLAQELEKFNRDQKADQDRLDLEERKKVETEAKIKQKLREIEENQKRIEKLEEYITTSKQSLEEQKKLEGELTEEVEMAKRRIDEINKELNQVMEQLGDARIDRQESSRQQRKAEIMESIKRLYPGSVYGRLIDLCQPTQKKYQIAVTKVLGKNMDAIIVDSEKTGRDCIQYIKEQRGEPETFLPLDYLEVKPTDEKLRELKGAKLVIDVIRYEPPHIKKALQYACGNALVCDNVEDARRIAFGGHQRHKTVALDGTLFQKSGVISGGASDLKAKARRWDEKAVDKLKEKKERLTEELKEQMKAKRKEAELRQVQSQAHGLQMRLKYSQSDLEQTKTRHLALNLQEKSKLESELANFGPRINDIKRIIQSREREMKDLKEKMNQVEDEVFEEFCREIGVRNIREFEEEKVKRQNEIAKKRLEFENQKTRLGIQLDFEKNQLKEDQDKVHMWEQTVKKDENEIEKLKKEEQRHMKIIDETMAQLQDLKNQHLAKKSEVNDKNHEMEEIRKKLGGANKEMTHLQKEVTAIETKLEQKRSDRHNLLQACKMQDIKLPLSKGTMDDISQEEGSSQGEDSVSGSQRISSIYAREALIEIDYGDLCEDLKDAQAEEEIKQEMNTLQQKLNEQQSVLQRIAAPNMKAMEKLESVRDKFQETSDEFEAARKRAKKAKQAFEQIKKERFDRFNACFESVATNIDEIYKALSRNSSAQAFLGPENPEEPYLDGINYNCVAPGKRFRPMDNLSGGEKTVAALALLFAIHSYKPAPFFVLDEIDAALDNTNIGKVANYIKEQSTCNFQAIVISLKEEFYTKAESLIGVYPEQGDCVISKVLTFDLTKYPDANPNPNEQ
binds: all assays above
